According to the supplement of paper PMC12217912:
The other results are listed elsewhere or left out. Sequences were assembled here from the parent chain. Inactive controls read about 0.05.

B1: TEV protease; numbered along this chain (parent)
chain: MGESLFKGPRDYNPISSSICHLTNESDGHTTSLYGIGFGPFIITNKHLFRRNNGTLVVQSLHGVFKVKDTTTLQQHLVDGRDMIIIRMPKDFPPFPQKLKFREPQREERICLVTTNFQTKSMSSMVSDTSCTFPSGDGIFWKHWIQTKDGQCGSPLVSTRDGFIVGIHSASNFTNTNNYFTSVPKNFMELLTNQEAQQWVSGWRLNADSVLWGGHKVFMVKPEEPFQPVKEATQL

Variants of: B1
Test: raw area under fraction-flipped curve 0-4 h after induction (AUC4h, not background-subtracted), DNA-recorder readout of cleavage of the substrate (dimensionless); higher = more cleavage of the substrate by the protease variant
Conditions: temperature: 34 °C; time window: 0-4 h after rhamnose induction
Protocol: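 In vivo DNA recorder in E. coli TOP10(DE3) ΔrhaA at 34 °C. Each TEVp single-site mutant (parent TEVp 0) is paired with a single-site variant of the 7-mer TEVs (canonical ENLYFQ|S). The substrate sits between flexible linkers in a Bxb1-sfGFP-TEVs-SsrA fusion, so cleavage stabilises Bxb1 and speeds flipping of a recombination array, read by NGS. The value is the raw area under the fraction-flipped curve over 0-4 h after rhamnose induction (AUC4h), with ≥20 reads per time point. It is not background-subtracted; inactive controls average about 0.047.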
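Note: Bxb1 expression induced with 0.2% (w/v) L-rhamnose at OD600 near 0.5, cultures sampled hourly, flipped fraction per protease–substrate barcode pair counted by paired-end Illumina sequencing.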

Row | Variant | area with substrate ENAYFQS | area with substrate ENCYFQS | area with substrate ENDYFQS | area with substrate ENEYFQS | area with substrate ENFYFQS | area with substrate ENHYFQS | area with substrate ENIYFQS | area with substrate ENKYFQS | area with substrate ENMYFQS | area with substrate ENNYFQS | area with substrate ENQYFQS | area with substrate ENRYFQS | area with substrate ENSYFQS | area with substrate ENTYFQS | area with substrate ENVYFQS | area with substrate ENWYFQS | area with substrate ENYYFQS | area with substrate ENGYFQS | area with substrate ENPYFQS
1 | E195D | 0.0638 | 0.0659 | 0.0636 | 0.0488 | 0.0518 | 0.0698 | 0.0897 | 0.0522 | 0.0673 | 0.0558 | 0.0563 | 0.0564 | 0.0488 | 0.0694 | 0.0803 | 0.0055 | 0.0556 | – | –
2 | G153N | 0.0876 | 0.0491 | 0.0608 | – | 0.0456 | – | – | 0.0469 | – | – | 0.0568 | 0.0536 | 0.0437 | – | – | – | – | 0.048 | 0.0404
3 | G153Y | 0.036 | – | 0.0566 | 0.0433 | – | – | 0.0435 | – | 0.052 | – | 0.0521 | 0.0528 | – | 0.0462 | 0.0431 | – | – | 0.0368 | –
4 | V183C | 0.065 | 0.0608 | 0.0596 | 0.0604 | 0.0616 | 0.0685 | 0.102 | – | – | 0.0636 | 0.0388 | – | 0.0552 | 0.0692 | 0.0685 | 0.0682 | 0.0615 | 0.0668 | 0.0591
5 | E189V | 0.0499 | 0.0538 | 0.0591 | 0.0505 | 0.0672 | 0.0626 | 0.0984 | – | – | 0.0615 | 0.035 | 0.0605 | 0.0894 | – | – | 0.0404 | – | 0.0603 | 0.054
6 | E189I | 0.0777 | – | – | 0.0598 | 0.0361 | – | 0.142 | – | – | 0.0693 | – | – | 0.0646 | – | 0.0776 | – | 0.0494 | – | 0.062
7 | S169C | 0.0597 | 0.0587 | 0.0638 | 0.0673 | 0.0648 | 0.0645 | 0.121 | 0.0797 | 0.055 | – | 0.0658 | 0.0834 | 0.0613 | 0.0598 | – | – | 0.0691 | – | –
8 | S169A | 0.0638 | 0.0658 | 0.0656 | – | 0.0551 | 0.0435 | – | 0.0576 | 0.0599 | 0.0516 | 0.0526 | 0.0453 | 0.0647 | – | 0.087 | – | – | 0.0384 | –
9 | T181G | 0.0555 | – | 0.0451 | 0.0511 | 0.0538 | – | – | – | 0.0464 | 0.0594 | 0.0569 | 0.0775 | 0.0643 | – | 0.0624 | – | 0.0579 | 0.0502 | –
10 | G166Q | 0.0403 | – | – | 0.0605 | 0.0517 | 0.056 | 0.0659 | 0.0385 | – | 0.0497 | 0.0517 | 0.0592 | 0.0537 | – | 0.0314 | – | 0.044 | 0.0485 | –
11 | G166S | 0.0518 | – | 0.0492 | 0.0462 | 0.0542 | 0.0491 | 0.0567 | – | – | 0.0528 | 0.059 | 0.058 | 0.0543 | 0.0599 | 0.0666 | – | – | 0.0496 | –
12 | G166T | 0.0477 | 0.0492 | 0.0569 | 0.0285 | – | 0.025 | – | – | – | 0.0551 | 0.0471 | – | 0.0464 | 0.0305 | 0.043 | – | 0.0477 | – | –
13 | S171G | 0.0529 | – | 0.0711 | – | – | 0.0638 | – | 0.0522 | – | – | 0.0714 | – | 0.0588 | 0.0459 | 0.0699 | – | – | – | –
14 | F180I | 0.0559 | 0.0461 | 0.0682 | 0.0513 | 0.0563 | 0.0674 | 0.0425 | – | 0.0405 | – | 0.0518 | 0.0525 | 0.0258 | 0.0297 | – | 0.045 | – | 0.0436 | 0.0568
